# Data taken from paper PMC12136788.
# Some of the results follow.
# T1: UNK ZnF1-3 (human, UniProt Q9C0B0 31-174)
# T1 sequence: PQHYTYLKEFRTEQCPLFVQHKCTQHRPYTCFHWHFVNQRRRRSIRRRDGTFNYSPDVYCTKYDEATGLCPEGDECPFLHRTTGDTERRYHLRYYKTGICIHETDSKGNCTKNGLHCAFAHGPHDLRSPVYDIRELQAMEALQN
# B1: chr11:46405157:46405158:+_ENSG00000110492_ENST00000395566|hu_hu|hu_hu_hu_mus_False|18_88 (ssRNA)
# RNA: GGGAGUUCUACAGUCCGACGAUCCCCUCCCCACUUUGGGCACUUGGUGAGAGGGACAGAGGACAGGCGUGAUUGACAGAGCUGACAGGAAGACAAAAGGCACUGGUGGGUUAUAUCUCGGGCCUGGGGGAGAGGAGGGCUCCGCAACAGAGGAUUGAGCAUCA
# B2: chr3:179287964:179287965:+_ENSG00000136518_ENST00000429709|hu_hu|hu_hu_hu_mus_True|58_88 (ssRNA)
# RNA: GGGAGUUCUACAGUCCGACGAUCCUUGAGUGGUGAGAUGGCCUCCAUAUUCUCCCUGGGCACGCGGAGGGCAUUGGUAUCUAUGUAGUAGGUGGGCCCGCCCUGCUUGCCUUUGUCACCAUCAAUCUCCAUCAUUGUACUUCCCAACAGAGGAUUGAGCAUCA
# B3: chr1:244855233:244855234:+_ENSG00000121644_ENST00000302550|hu_mus|hu_hu_hu_mus_True|58_98 (ssRNA)
# RNA: GGGAGUUCUACAGUCCGACGAUCCAUCAGAUGGUAGGCAUUGCCUUUAUACUCUUUCCCCAGUUCUUCUACAAUUUUUUCUAUAUCAUCUUCUAGAAAGUCCGUACUUCCUAGAACAACAGCUUCUUUAAAUUUAAAUGUUUCCAACAGAGGAUUGAGCAUCA
# B4: chr19:10059387:10059388:+_ENSMUSG00000024661_ENSMUST00000025563|mus_mus|FALSE|FALSE (ssRNA)
# RNA: GGGAGUUCUACAGUCCGACGAUCGGGGAAGUCAGCUUAGCUCUCAUCACCGUGUCCCAGGGUGUGCUUGUCAAAGAGAUAUUCUGCCAUGCCAGCUUCAGGGGCACCCAUCUUGCGUAAGUUGGUCACGUGGUCACCCAGUUCCAACAGAGGAUUGAGCAUCA
# B5: chr19:16212804:16212805:+_ENSG00000167460_ENST00000300933|hu_mus|hu_hu_hu_mus_False|28_108 (ssRNA)
# RNA: GGGAGUUCUACAGUCCGACGAUCAACAAAUAUGCAAUGAAGGAAAGAUGUAACAUGGAACAGCAUUAAAGCUCAGUCAGAAGGCACAUGGGCAACAAUGAUCACCCCCCAAGCAUUGCUUGGAAUGCUUAAAGACAAUCUGUUCAACAGAGGAUUGAGCAUCA
# B6: chr18:33606911:33606912:-_ENSG00000141425_ENST00000399022|hu_hu|motif|central (ssRNA)
# RNA: GGGAGUUCUACAGUCCGACGAUCUUCCAAUUUAUGCUCUUUCUCUGCAAGGGCUUCCUUUUGACAACGAAGAAAAUCUGCGGACAUUCGAGUGAGUUGCUUUCUAUCAUCUAUUUCUGCCGCCAAUCUGCCAUUGUAAUCUGCCAACAGAGGAUUGAGCAUCA
# B7: chr2:37325018:37325019:+_ENSMUSG00000035437_ENSMUST00000112920|perfect_dup|FALSE|FALSE (ssRNA)
# RNA: GGGAGUUCUACAGUCCGACGAUCAUUAUUUGUAGAUGGUGUCUCAUCUCCUUGCCUGGAAACCAAGACAAAAUCUUCACUAUUAAGAGUAGAUACUGAGUCUGAAGAGACACUGAUUUUUCCAACAGAAGCCUUGUCAUCCAUCAACAGAGGAUUGAGCAUCA
# B8: chr2:90620368:90620369:+_ENSMUSG00000008200_ENSMUST00000013759|mus_mus|motif|central (ssRNA)
# RNA: GGGAGUUCUACAGUCCGACGAUCAGUGGCUUAUACUUAUUGCCACAUACUUAGGGGGGAAUUUCUCAAAACCAAGGAUCGGAACACCUGCUGCUUGCUGCUGCUCCUGCCUGUGCUGCAAAGCGAGCAUUCUAGGGUGUGUGUCAACAGAGGAUUGAGCAUCA
# B9: chr10:33214929:33214930:-_ENSG00000150093_ENST00000302278|hu_hu|hu_hu_hu_mus_True|78_78 (ssRNA)
# RNA: GGGAGUUCUACAGUCCGACGAUCAACAAGUUCAUUGAAAAACUCUCCUCUGUCAGUAAGACUGAGCACAUUUUUGUAGCUAAAUGGGCUGGUGCAGUUUUGUUCACUUGUACAAGGAUUUCUUAGCUUUGCUGGGGUUGUGCUCAACAGAGGAUUGAGCAUCA
# B10: chr4:76721835:76721836:+_ENSG00000138768_ENST00000264904|hu_mus|hu_hu_hu_mus_True|28_108 (ssRNA)
# RNA: GGGAGUUCUACAGUCCGACGAUCGUUGGCUGGGGUUUUCUGAGACGCUCUGGAAUAUAACUCAUGUUUGCUAAUAAAUCCUAGUUUCUCUAUGAAAUUCUCUUUGCAAUCCUCUUCCUCUAUUAGUUGCUUUAGUUUCUCUUUCAACAGAGGAUUGAGCAUCA
# B11: chr9:124914678:124914679:-_ENSG00000119421_ENST00000373768|hu_hu|motif|central (ssRNA)
# RNA: GGGAGUUCUACAGUCCGACGAUCGGGCUUAUCACAUUGAGCUCCAUAGUGAUGGGCCGCAGCUUUAAGCACAGCAGAACGGAUUUUCACCUCAUCUACUUUCAGCUCCUCUAGAGUGGGCAGCUCCACUAUCCCCGGCAUGACCAACAGAGGAUUGAGCAUCA
# B12: chr15:76463590:76463591:-_ENSMUSG00000059323_ENSMUST00000168185|mus_hu|FALSE|FALSE (ssRNA)
# RNA: GGGAGUUCUACAGUCCGACGAUCCCGGCUCUGAGCACUGCCCACACCCCGGAUGGCUGCCUGGUAGGCUGCCCGGCUGGUGCUGGCUGUGGCUGCUUCCCUGUUGCUGGCGGGGCCAGGCGUCCAGGCUGCCACCCGUUGUGCCAACAGAGGAUUGAGCAUCA
# B13: chr18:33747085:33747086:+_ENSG00000134759_ENST00000351393|hu_mus|motif|central (ssRNA)
# RNA: GGGAGUUCUACAGUCCGACGAUCAGACCAAAUGAUUCUACUAUGCACAGAAGUAAUUUUGUUGGUGAAUGCAAAGAGACGGAAAAAUGGAUCAAACUCCGAGGAAGUCGCAUCCUGUCUCUUCCACAAAGACCAGGUUCGAUCCAACAGAGGAUUGAGCAUCA
# B14: chr16:94913438:94913439:+_ENSMUSG00000022897_ENSMUST00000122284|mus_mus|motif|central (ssRNA)
# RNA: GGGAGUUCUACAGUCCGACGAUCCAGGGAUGUCAUGGAGUGGUGACUGUGGCCAACCUCCAUAGAAUCCUGGGUAGAGGAGCGGUUUGUUGGAGAAUUGUAGACCCUUGGCCUGGUCCGGUUACCCAAGGCUUGCUGUCCAUGCAACAGAGGAUUGAGCAUCA
# B15: chr6:38652254:38652255:-_ENSG00000124767_ENST00000373365|hu_hu|hu_hu_hu_mus_False|1_108 (ssRNA)
# RNA: GGGAGUUCUACAGUCCGACGAUCCGAAAACUUCAUAGCAGGGAAGUCAAGCUUCUGCAGGAGGGUCAGUCCAAGAACCCUCGUAUAAAAAUCCAGGGACUUCUUAGGAUCCUUAAUUCUUAGCAUCGUUUGCUGCAAUAGAAACAACAGAGGAUUGAGCAUCA
# B16: chr7:23164667:23164668:+_ENSG00000122550_ENST00000322275|hu_mus|FALSE|FALSE (ssRNA)
# RNA: GGGAGUUCUACAGUCCGACGAUCCACAGGUUCAAUCUGGUACUGAUUUGCUGCAUCUAACAAAGACUGAACAUUGUUGCUAUUCACAGAAAUUCUAGCAGUAUAAGCAAAUUCCACCAGUUGUUCAAUAAUAUCAGGUUCAGCCAACAGAGGAUUGAGCAUCA
# B17: chr22:42032659:42032660:+_ENSG00000196419_ENST00000405878|hu_hu|FALSE|FALSE (ssRNA)
# RNA: GGGAGUUCUACAGUCCGACGAUCGUCUUCAUUGGUGAACAGCAUGAUCCUCUUAUGACUCAUCUUGAAUUGGACAUCACUAAAGAGGUUGGCACAGACCCACAGCACUUCACUGAGUGAGUAGUCAGAUCCGUGGCCCAUCAUCAACAGAGGAUUGAGCAUCA
# B18: chr1:220379288:220379289:-_ENSG00000118873_ENST00000358951|hu_mus|FALSE|FALSE (ssRNA)
# RNA: GGGAGUUCUACAGUCCGACGAUCUGAUGCUGCAGCUUUUGCUACUUGGUUUCGACAGGCUCGAAGAGACUGAAAGAGACUAAAUCCAUCAAUCGUCACAAUGGCGGCUGGAUAUAAGAUGCUCAGUUCUUCAUUCUGCUCAGUCAACAGAGGAUUGAGCAUCA
# B19: chr15:42709458:42709459:-_ENSG00000103994_ENST00000263805|hu_mus|FALSE|FALSE (ssRNA)
# RNA: GGGAGUUCUACAGUCCGACGAUCGGAGGACAGAUAGGGGCCUGGAGAAGGACAGUGAACGGCCCAUGGGAGAAUUCUUCACUAAGGACUUCCCAACGUGGGAGGCAAAAAACUUCAUGAAUCUAUUUUGCUGUCAUCUUCAGCCAACAGAGGAUUGAGCAUCA
# B20: chr2:114699772:114699773:+_ENSG00000115091_ENST00000536059|hu_hu|FALSE|FALSE (ssRNA)
# RNA: GGGAGUUCUACAGUCCGACGAUCUGACCCAUCUGUAUCAUACUUGUUAAAUUCUUUUACUAAAUCUGGGCAGACAUAACUAUAGCGCUCCUUUACUGCCUUAGCAGUUUCCAAGGAUUGUUCUGGAGGGAUUCCUACUUCUCGCAACAGAGGAUUGAGCAUCA
# B21: chr17:49039638:49039639:-_ENSG00000008294_ENST00000262013|hu_mus|motif|central (ssRNA)
# RNA: GGGAGUUCUACAGUCCGACGAUCCAUUCCGAACCCCAGGGAUUCCAUAAUAGAAAUAAAUACUGAAAUAACUACAUUGCGGAAUGAGCUUUUUACGCAUAGAAAUGAAGCCGUGGCCUCUAAAGACAGCAAAUGGGACAAUUCCAACAGAGGAUUGAGCAUCA
# B22: chr4:108954403:108954404:+_ENSG00000138796_ENST00000309522|hu_hu|motif|central (ssRNA)
# RNA: GGGAGUUCUACAGUCCGACGAUCAGUAUCCAGUCCGACAUAAUCUAGAAGCUCAAAUGGGCCCAUGGGGUAACCGGCUCCGGAUUUCAUAGCAGUGUCAAUGUCUUCUUUGGAUGCGUCACCUCGUUCAUACAGCCUGAUUGCCAACAGAGGAUUGAGCAUCA
# Biological target: T1, UNK ZnF1-3
# Test: nsRBNS (natural sequence RNA bind-n-seq); RBNS binding buffer (assumed for nsRBNS): 25 mM Tris pH 7.5, 150 mM KCl, 3 mM MgCl2, 0.01% Triton X-100, 500 ug/ml BSA, 20 U/ml SUPERase-In, 4 C; UNK is unkempt and MSI1 is Musashi-1; names of the RNAs are library labels; protein concentration not given here; high values mean tight binding
row,Binder,binding signal
1,B1,3.09 enrichment R
2,B2,0.686 enrichment R
3,B3,1.61 enrichment R
4,B4,0.895 enrichment R
5,B5,1.19 enrichment R
6,B6,0.454 enrichment R
7,B7,0.692 enrichment R
8,B8,0.948 enrichment R
9,B9,0.85 enrichment R
10,B10,0.458 enrichment R
11,B11,1.19 enrichment R
12,B12,0.467 enrichment R
13,B13,0.898 enrichment R
14,B14,0.661 enrichment R
15,B15,0.759 enrichment R
16,B16,1.26 enrichment R
17,B17,1.27 enrichment R
18,B18,0.83 enrichment R
19,B19,1.46 enrichment R
20,B20,0.847 enrichment R
21,B21,1.77 enrichment R
22,B22,1.51 enrichment R
